# According to PubChem BioAssay AID1768 (National Center for Advancing Translational Sciences (NCATS), 2009):
# Where “and” joins values, the source holds several entries; their conditions need not be identical. Equal values may be shown once. About 620 (0.23%) of roughly 270,000 compounds were called active. The inconclusive results got no clear call from the source; some entries with a clear call stand among them for comparison. Calls follow the shape of the dose curve; as a rule, active = well fitted inhibition curve with a large enough effect in the polarisation, with a control signal flat (not every such curve was filed as active); inconclusive = small, poorly fitted or top-dose-only effect, or effect the other way, or a change in a side signal; inactive = no such curve, though single readings can be large or run the other way; the % refers to the polarisation. Potencies of inconclusive entries are doubtful fits and often do not repeat. “Side channel” marks fits to a control or component signal instead of the main read-out.
# Molecular target: Menin (Homo sapiens) (UniProt O00255)
# Sequence of UniProt O00255 (O00255 whole entry, looked up): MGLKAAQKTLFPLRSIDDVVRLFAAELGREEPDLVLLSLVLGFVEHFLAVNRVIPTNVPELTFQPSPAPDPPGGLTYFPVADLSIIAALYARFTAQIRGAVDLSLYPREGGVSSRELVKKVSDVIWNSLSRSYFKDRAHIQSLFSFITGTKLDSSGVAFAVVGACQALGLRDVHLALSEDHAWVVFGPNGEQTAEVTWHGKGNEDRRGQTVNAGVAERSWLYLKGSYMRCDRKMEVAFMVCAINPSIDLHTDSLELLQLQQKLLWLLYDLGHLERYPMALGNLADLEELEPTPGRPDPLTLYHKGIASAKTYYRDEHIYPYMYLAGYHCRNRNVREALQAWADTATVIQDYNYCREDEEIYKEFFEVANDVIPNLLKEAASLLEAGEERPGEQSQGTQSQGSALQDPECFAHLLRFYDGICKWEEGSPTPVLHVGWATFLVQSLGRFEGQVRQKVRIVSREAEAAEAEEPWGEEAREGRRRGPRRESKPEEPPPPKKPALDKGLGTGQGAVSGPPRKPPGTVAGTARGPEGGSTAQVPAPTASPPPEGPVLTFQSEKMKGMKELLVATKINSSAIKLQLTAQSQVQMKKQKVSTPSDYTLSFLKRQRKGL
# Assay: qHTS Assay for Inhibitors Targeting the Menin-MLL Interaction in MLL Related Leukemias: Competition With Texas Red Labeled MLL-derived Mutant Peptide; as to FP activity change, negative = inhibition: % of control where 0% means no effect
# Conditions: fluorescence polarization; FP activity change, negative = inhibition: at 61.6 µM (top of the series)
# Potency is read from the fitted curve at half-maximal effect; tags tell the direction and shape of the fitted curve or compound fluorescence and quenching.
SMILES,Potency,"FP activity change, negative = inhibition"
CN(C)C(/C=C/Nc1ccc(O)cc1)=C(C#N)C#N,inactive,
Cc1cc(=O)oc2cc(OC3C=CC(C#CC(C)(C)C)OC3CO)ccc12 (stereo not given),,inactive: -7.1% [at 11.7 µM]
CCOC(=O)N1CCN(Cc2nc3cc([N+](=O)[O-])ccc3n2C)CC1,"inconclusive: 39.8 µM [inhibitor, single point]",
Cc1ccc(Cc2cnc(NC(=O)c3cccs3)s2)cc1,"inconclusive: 7.94 µM [quencher, side channel, partial curve]",
CSc1ccc(CCNC(=O)C2CCCN(c3nn4c(=O)cc(C)nc4s3)C2)cc1 (stereo not given),"inconclusive: 28.2 µM [inhibitor, partial curve]",
O=c1c2c(c(-c3ccccc3)nn1Cc1ccccc1)CCCC2,"inconclusive: 10 µM [fluorescent, side channel, partial curve]",
CCCCOc1ccc(N=Nc2ccc(N)nc2N)cn1,"inconclusive: 14.1 µM [quencher, side channel, partial curve]",
O=C(COC(=O)c1ccccc1O)Nc1ccc(S(=O)(=O)N2CCCCC2)cc1,"inconclusive: 7.94 µM [quencher, side channel, full curve]",
CCCCCCCCCCCCCCC/C=C/[C@@H](O)[C@H](NC(=O)CCCCCCCCCCCCC)OC (tested in a mixture with another compound),inactive,
Nc1ccc(O)cc1C(=O)OCC(=O)C12CC3CC(CC(C3)C1)C2,"inconclusive: 25.1 µM [quencher, side channel, partial curve]",
COC(=O)N1CCN(/[N+]([O-])=N/Oc2ccc([N+](=O)[O-])cc2[N+](=O)[O-])CC1,"inconclusive: 28.2 µM [quencher, side channel, single point]",
COc1ccc(C(NCC(=O)Nc2c(C)cccc2C)c2ccccc2)cc1 (stereo not given),"inconclusive: 10 µM [fluorescent, side channel, partial curve]",
Cc1ccc(Cn2ccc(NC(=O)c3cc(-c4cccs4)on3)n2)cc1,"inconclusive: 25.1 µM [quencher, side channel, single point]",
CC(C)(C)c1ccc(S(=O)(=O)N2CC(C(=O)O)Oc3ccc(Cl)cc32)cc1 (stereo not given),"inconclusive: 28.2 µM [quencher, side channel, single point]",
COc1cc(/C=N/Nc2snc(SC)c2C#N)ccc1O,"inconclusive: 10 µM [quencher, side channel, partial curve]",
COc1cc(NS(=O)(=O)c2ccc(NC(=S)NC(=O)c3ccccc3)cc2)nc(OC)n1,"inconclusive: 39.8 µM [quencher, side channel, single point]",
COc1cccc(C2=Nn3c(nnc3-c3ccccc3O)SC2)c1,"inconclusive: 708 nM [quencher, side channel, full curve] and inconclusive: 17.8 µM [quencher, side channel, partial curve]",
Cc1csc(NC(=O)c2ccc(S(C)(=O)=O)cc2)n1,"inconclusive: 1.58 µM [quencher, side channel, full curve]",
CCC1CCCCN1S(=O)(=O)c1ccc(NC(=O)c2cccs2)cc1 (stereo not given),"inconclusive: 15.8 µM [quencher, side channel, partial curve]",
COc1cc(/C=C2\SC(=S)N(CCC(=O)Nc3cccc(O)c3)C2=O)cc(OC)c1OC,"inconclusive: 11.2 µM [quencher, side channel, partial curve]",
CN1CCCC(OC(=O)c2ccc3c(c2)OCCO3)C1 (stereo not given),"inconclusive: 39.8 µM [inhibitor, single point]",
CC(=O)Nc1nc(CC(C)C)cc2c1c(=O)oc1ccccc12,"inconclusive: 39.8 µM [inhibitor, single point]",
COc1ccc(NC(=O)CCn2cccc2)cc1,"inconclusive: 14.1 µM [inhibitor, partial curve, poor fit]",
Cc1[nH][nH]c(=O)c1C(c1ccc(-c2ccc(C(=O)O)cc2)o1)c1c(C)[nH][nH]c1=O,inactive,
O=C(NCCc1ccccc1)C1CCC(Cn2c(=O)c3ccccc3n(Cc3cccnc3)c2=O)CC1 (stereo not given),"inconclusive: 39.8 µM [inhibitor, single point]",
O=c1cc(-c2ccccc2)oc2cccc(O)c12,"inconclusive: 39.8 µM [fluorescent, single point]",
Cc1ccc(OCC(=O)Nc2ccc(N3CCN(S(C)(=O)=O)CC3)cc2)cc1C,"inconclusive: 12.6 µM [quencher, side channel, partial curve]",
COc1cccc2c1C(=O)c1c(O)c3c(c(O)c1C2=O)C[C@](O)(C(=O)CO)C[C@H]3O[C@@H]1C[C@H](N)[C@H](O)[C@H](C)O1,"inconclusive: 14.1 µM [fluorescent, side channel, partial curve]",

SMILES,Potency,"FP activity change, negative = inhibition"
COC(=O)C1=C[C@@H](C(=O)OC)C2C3=C(C(=O)[C@@]2(C)NC(=O)c2ccccc2)[C@H](C)n2c(=O)n(C)c(=O)n2[C@@H]3C1 (stereo not given in full),inactive,
Cc1ccc2c(c1)c(Sc1ccccc1)c(CC(=O)O)n2C,"inconclusive: 17.8 µM [quencher, side channel, single point]",
CCCOc1ccc(N2CC(C(=O)Nc3ccc4c(c3)OCO4)CC2=O)cc1 (stereo not given),"inconclusive: 35.5 µM [inhibitor, single point]",
COc1cc(/C=N/NC2=NS(=O)(=O)c3ccccc32)cc(OC)c1OC,"inconclusive: 35.5 µM [quencher, side channel, single point]",
Cc1ccc(NC(=O)O/N=C/c2ccc(N(C)C)cc2)cc1,"inconclusive: 25.1 µM [inhibitor, single point]",
CCC1(C)Cc2c(sc3[nH]c(=S)[nH]c(=S)c23)CO1 (stereo not given),"inconclusive: 28.2 µM [quencher, side channel, partial curve]",
COc1ccc(/C=N/NC(=O)c2ccncc2)cc1CSc1nc2ccccc2s1,"inconclusive: 8.91 µM [quencher, side channel, full curve, poor fit]",
c1ccc(-n2nnnc2OCCOc2nnnn2-c2ccccc2)cc1,"inconclusive: 39.8 µM [fluorescent, side channel, single point]",
COc1cccc(CN2CCN(Cc3c(C)nn(C(C)C)c3C)CC2CCO)c1 (stereo not given),"inconclusive: 10 µM [inhibitor, partial curve]",
O=C(Nc1ccc(S(=O)(=O)NCCc2ccccc2)cc1)c1ccc(Br)o1,"inconclusive: 14.1 µM [quencher, side channel, partial curve]",
O=C1c2sc3nc4ccccc4n3c2C(=O)N1c1ccccc1Cl,"inconclusive: 31.6 µM [quencher, side channel, single point]",
Cc1cccc(-n2cc(-c3ccccc3)c3c(N4CCOCC4)ncnc32)c1,"inconclusive: 3.98 µM [fluorescent, side channel, full curve]",
CN1CCN(c2nc(-c3ccc(Cl)cc3)cc(=O)[nH]2)CC1,"inconclusive: 6.31 µM [quencher, side channel, single point]",
CC1CCN(C(=O)CN(c2ccc(Oc3ccccc3)cc2)S(C)(=O)=O)CC1,"inconclusive: 7.08 µM [fluorescent, side channel, partial curve]",
O=C(NCc1ccc(Cl)cc1)C1CCN(S(=O)(=O)c2cc([N+](=O)[O-])ccc2Cl)CC1,"inconclusive: 10 µM [quencher, side channel, partial curve]",
O=C(NNC(=O)c1cc2cc3ccccc3nc2s1)c1cccc(Cl)c1,"inconclusive: 31.6 µM [inhibitor, single point]",
CC(C)Oc1ccc(Cn2c(=O)oc3ccccc32)cc1,"inconclusive: 28.2 µM [fluorescent, side channel, partial curve]",
OCC[C@@H]1C[C@@H](O)[C@H](O)[C@@]2(CCc3ccccc3O2)O1,inactive,
CCCCSc1nc2sc3c(c2c(=O)n1-c1ccc(OC)cc1)CCN(C)C3,"inconclusive: 2.82 µM [fluorescent, side channel, full curve]",
COC(=O)c1[nH]c2ccc(F)cc2c1NS(=O)(=O)c1ccc(F)c(C)c1,"inconclusive: 39.8 µM [quencher, side channel, single point]",
O=C(N/N=C/c1c(Cl)cccc1Cl)c1ccccc1F,"inconclusive: 35.5 µM [fluorescent, side channel, single point]",
Oc1ccccc1-c1nc(NCCN2CCOCC2)c2ccccc2n1,"inconclusive: 12.6 µM [quencher, side channel, partial curve]",
CSCC[C@H](NC(=O)[C@@H]1Cc2ccccc2CN1)C(=O)Nc1ccc2c(c1)OCO2,"inconclusive: 44.7 µM [inhibitor, partial curve, poor fit]",
Cc1cc(C)cc(NC(=O)c2cc3c(=O)n4ccccc4nc3s2)c1,"inconclusive: 28.2 µM [fluorescent, side channel, partial curve]",
O=c1c(CCc2ccccc2)nc2cnc(N3CCNCC3)nc2n1C1CC1,"inconclusive: 31.6 µM [fluorescent, side channel, single point]",
O=C(CN1CCCCCCC1)Nc1cccc(Cl)c1Cl,"inconclusive: 11.2 µM [fluorescent, side channel, partial curve]",
Cc1cc(C2=NNC(=NC3CC3)SC2)c(C)n1-c1ccccc1,inactive,
